Test results taken from PMC4336329 (PLoS ONE, 2015).
The whole screen tested about 310,000 compounds, of which about 14,000 (4.5%) showed an effect of 50% or more. The effect is printed as a negative number. The list shows a part of the results.

Biological target: human ether-à-go-go-related gene (hERG) potassium channel (human, UniProt Q12809)
Experiment: primary screen, population patch clamp on CHO cells stably expressing hERG
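Further: peak tail current of the secondary pulse compared with the same well before compound.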

Sequence of human ether-à-go-go-related gene (hERG) potassium channel (Q12809 whole entry, looked up): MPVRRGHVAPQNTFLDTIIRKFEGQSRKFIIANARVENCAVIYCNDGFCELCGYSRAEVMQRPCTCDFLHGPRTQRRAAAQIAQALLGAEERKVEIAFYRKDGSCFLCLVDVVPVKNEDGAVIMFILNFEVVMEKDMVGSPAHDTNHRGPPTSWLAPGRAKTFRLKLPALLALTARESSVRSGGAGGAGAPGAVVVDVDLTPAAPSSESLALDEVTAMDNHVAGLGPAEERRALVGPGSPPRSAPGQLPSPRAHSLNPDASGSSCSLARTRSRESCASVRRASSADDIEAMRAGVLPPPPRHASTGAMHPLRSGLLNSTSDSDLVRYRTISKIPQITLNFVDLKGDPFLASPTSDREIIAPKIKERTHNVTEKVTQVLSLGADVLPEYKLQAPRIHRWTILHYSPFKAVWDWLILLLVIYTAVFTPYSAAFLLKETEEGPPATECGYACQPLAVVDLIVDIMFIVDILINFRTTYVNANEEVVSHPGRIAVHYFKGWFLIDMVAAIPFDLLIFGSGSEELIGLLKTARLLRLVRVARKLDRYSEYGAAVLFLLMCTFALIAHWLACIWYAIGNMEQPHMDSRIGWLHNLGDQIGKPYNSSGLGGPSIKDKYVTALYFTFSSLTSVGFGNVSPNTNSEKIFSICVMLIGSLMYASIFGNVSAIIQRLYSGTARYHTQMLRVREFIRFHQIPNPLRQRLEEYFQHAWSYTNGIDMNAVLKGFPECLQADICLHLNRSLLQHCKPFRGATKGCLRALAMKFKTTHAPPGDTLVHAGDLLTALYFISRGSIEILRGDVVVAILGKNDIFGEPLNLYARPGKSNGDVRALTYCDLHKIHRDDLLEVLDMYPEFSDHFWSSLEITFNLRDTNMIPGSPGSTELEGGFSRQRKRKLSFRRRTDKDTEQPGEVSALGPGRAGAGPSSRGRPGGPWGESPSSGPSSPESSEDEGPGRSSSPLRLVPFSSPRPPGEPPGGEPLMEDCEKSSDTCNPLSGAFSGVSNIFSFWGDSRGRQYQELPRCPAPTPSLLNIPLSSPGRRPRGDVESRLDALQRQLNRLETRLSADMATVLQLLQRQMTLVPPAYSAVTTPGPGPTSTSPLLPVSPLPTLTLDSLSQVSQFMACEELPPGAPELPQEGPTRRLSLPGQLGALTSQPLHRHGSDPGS

SMILES	hERG current change (%, negative = inhibition) at 10uM
O=C(c1ccccc1)N1CCN=C1c1ccccc1	2.72%
Cc1ccc2[nH]c(=O)c(CN(c3cccc(C)c3C)S(=O)(=O)c3ccccc3)cc2c1	-3.33%
COc1cc(C(=O)NCc2cn3ccsc3n2)cc(OC)c1OC	21.5%
COc1cc(CC(=O)Nc2sccc2C(N)=O)cc(OC)c1OC	4.1%
O=C(Nc1nnc(-c2ccco2)o1)c1cccc(N2C(=O)CCC2=O)c1	7.91%
O=C(O)CNC(=O)c1ccc(NC(=O)/C(=C/c2ccccc2)NC(=O)c2ccco2)cc1	8.31%
Cc1cc(NC(=O)CSc2nc3cc4c(cc3c(=O)n2CCc2ccccc2)OCO4)no1	10.9%
CCC1(c2ccc(C)cc2)NC(=O)N(CC(=O)Nc2cccc(S(=O)(=O)N3CCCC3)c2)C1=O (stereo not shown)	0.0785%
CCN(CC)CCNC(=O)C1(O)c2cc(Br)ccc2NC(=O)N1c1ccccc1 (stereo not shown)	18%
CCC1C(=O)N=C(SCC(=O)NC2CCCCC2)NC1=O (stereo not shown)	19.2%
O=C(Nc1ccc2oc(-c3cccnc3)nc2c1)c1ccc(Br)o1	-6.11%
Cc1ccc(CNC(=O)CCc2nnc3ccc(N4CCC5(CC4)OCCO5)nn23)cc1	19.4%
CCN(CC)S(=O)(=O)c1ccc(N2CCCC2)c(C(=O)OCC(=O)N2CCCC2)c1	-3.73%
CSc1ccccc1NC(=O)COc1nsnc1N1CCOCC1	3.25%
COCCNC(=O)CCC1CCN(C/C=C/c2ccccc2OC)CC1	-3.87%
NC(=O)COC(=O)c1ccc2c(c1)S(=O)(=O)c1ccccc1C2=O	-12.5%
CC(C)c1cc(=O)n2[nH]c(SCc3ccccc3Cl)nc2n1	23.7%
CCN(CC)S(=O)(=O)c1cc([N+](=O)[O-])ccc1NNC(=O)Nc1ccc(F)cc1	4.25%
CC1(C)CC(=O)c2cn3nc(C(F)(F)F)nc3nc2C1	4.21%
Cc1ccc(N=Nc2ccc(N)cc2C)c(S(N)(=O)=O)c1	18%
CCn1cnc2c([N+](=O)[O-])c(NS(=O)(=O)c3ccc(C)cc3)ccc21	-2.13%
Cc1onc(-c2ccccc2Cl)c1C(=O)Nc1ccccc1O	-1.22%
Cc1ccc(S(=O)(=O)Cc2ccc(C(=O)N3CCc4ccccc4C3)o2)cc1	-62.2%
O=S(=O)(NCc1cc(-c2ccccc2Cl)no1)c1ccccc1	-3.82%
Cc1ccc(SCC(=O)OCC(=O)N(C)CC(=O)Nc2ccccc2Cl)cc1	-7.22%
O=C1N(CC(=O)N2CCc3ccccc32)CCN1Cc1ccccc1Cl	-12.1%
Cl.O=C(NCc1ccccc1)N1CCNCC1	12.6%
CCC(CC)c1nc(C#N)c(NCc2ccccc2)o1	9.58%

SMILES	hERG current change (%, negative = inhibition) at 10uM
CCOC(=O)/C(N=Nc1c(C)n(C)n(-c2ccccc2)c1=O)=C(/O)c1ccccc1	-7.39%
O=C(COC(=O)C12CC3CC(CC(C3)C1)C2)Nc1ccc([N+](=O)[O-])cc1Br	8.64%
Cc1ccc(S(=O)(=O)N2CCC(NC(=O)OC(C)C)CC2)cc1	-4.43%
O=C1c2cccc3cccc(c23)C(=O)N1c1ccncc1	-2.74%
CCN1C(=O)C(CC(=O)Nc2ccc(OC)cc2)N(CCc2ccc(F)cc2)C1=S (stereo not shown)	-6.48%
O=S(=O)(NC1CCCCC1)c1cccs1	5.86%
COCCN(C(=S)Nc1ccc(OC)cc1)C1CCN(C(C)C)CC1	0.163%
O=C(NCC1CCCO1)c1cccnc1Nc1ccccc1F (stereo not shown)	7.87%
Cc1ccc(CNC(=O)c2ccc(N3CCC4(CC3)CC(c3ccccc3)=NO4)c(NC(=O)c3c(Cl)cccc3Cl)c2)cc1	27.5%
CNS(=O)(=O)c1cccc(C(=O)NCC(c2cccs2)N2CCOCC2)c1 (stereo not shown)	2.68%
CCOC(=O)CNC(c1ccccc1)c1cc(Br)ccc1NC(=O)CCN1CCOCC1 (stereo not shown)	-68%
Cc1cc(OCC(=O)Nc2cccc(S(=O)(=O)NC3=NCCCCC3)c2)ccc1Cl	-24.7%
O=S(=O)(NCCNS(=O)(=O)c1cccs1)c1cccs1	-3.62%
Fc1ccc(/C=N/NC(=S)Nc2ccc(Cl)cc2)cc1F	9.62%
COc1cc(NC(=O)c2ccccc2)c(OC)cc1NC(=O)Cc1ccc(Br)cc1	18.8%
COc1cccc(NC(=S)NN2CCN(C)CC2)c1	6.84%
O=C(NC(=S)Nc1cccnc1)c1cc2ccccc2o1	9.86%
CC(Cc1ccccc1)[n+]1cc(/N=C(\N)[O-])on1 (stereo not shown)	19.3%
CCOc1ncccc1C(=O)OCC(=O)Nc1cccc(S(N)(=O)=O)c1	14.9%
O=C(CN1CCC(n2nnc3cc(C(F)(F)F)ccc32)CC1)N1CCc2ccccc21	-19.9%
CN(C1CCCCC1)S(=O)(=O)c1ccc2c(c1)c(=O)c(C(=O)NCCN1CCCC1)cn2C	-27.7%
COc1ccc(NC(=S)NNC(=O)OC(C)(C)C)cc1OC	11.1%
CCOC(=O)c1c(C)c(C(=O)NCCN2CCOCC2)c(C)n1CC	0.0858%
O=C(COn1nnc2ccccc21)N1CCN(Cc2ccccc2)CC1	2.76%
O=C(CC12CC3CC(CC(C3)C1)C2)N1CCN(S(=O)(=O)c2cccs2)CC1	-3.18%
COc1ccc(CNC(=O)C2CCCN(S(=O)(=O)N3CCC(C)CC3)C2)c(OC)c1 (stereo not shown)	37.7%
CCCCn1c(SCC(=O)NCc2ccco2)nnc1-c1ccoc1C	6.03%
